This note sets out measurements from the supplement of paper PMC10037445.

Test [1] has as its system RAW-Dual. Put plainly: IRF Lucia reporter activity, fold change vs agonist alone; cytotoxicity flag (confluency mask): not cytotoxic; higher = enhanced IRF activity. An outline of the steps:
(§1)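 Cytotoxic wells were those whose IncuCyte confluency was below 70% of agonist controls in both mask sets. The cells were RAW-Dual macrophages at 50,000 cells/well in DMEM on 384-well plates, dosed with 50 nL of library stock by pin tool, stimulated with a PRR agonist 1 h later, and kept at 37 °C, 5% CO2 for 20 hours. IRF and NF-κB reporter activity, as fold change over agonist-alone wells, came from supernatant read by QuantiLuc luminescence and QuantiBlue absorbance, respectively.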

Test [2] concerns RAW-Dual. As to the kind of experiment: IRF Lucia reporter activity, fold change vs agonist alone; higher = enhanced IRF activity. The note with it: library stock concentration (final ~1000-fold dilution): 10 mM, agonist: MPLA (TLR4) […]. The procedure, abridged:
as §1

The subject of test [3] is RAW-Dual. As to the kind of experiment: IRF Lucia reporter activity, fold change vs agonist alone; cytotoxicity flag (confluency mask): cytotoxic (confluency <70% of control); higher = enhanced IRF activity. An outline of the steps: as §1
[4] abbreviates: agonist: 3'3'-cGAMP (STING) 10 ug/mL.
[5] abbreviates: cytotoxicity flag (confluency mask): not cytotoxic.

Several values for one entry are separate records, joined by “and”; a condition that tells them apart may be missing. Identical values can stand only once. In all, about 2,900 compounds were measured (“IRF Lucia reporter activity, fold change vs agonist alone”: median about 0.9, highest 2% from about 2.8 on). The list shows a part of the results.

Regarding `CCc1c2c(nc3ccc(OC(=O)N4CCC(N5CCCCC5)CC4)cc13)-c1cc3c(c(=O)n1C2)COC(=O)C3(O)CC.Cl.O.O.O` (stereo unspecified) (library stock concentration (final ~1000-fold dilution): 10 mM), the “IRF Lucia reporter activity” value in test [1] (setting [4]) was 0.87; in test [1] (agonist: LPS (TLR4) 0.1 ug/mL), 1.1.
With `CCc1c2c(nc3ccc(OC(=O)N4CCC(N5CCCCC5)CC4)cc13)-c1cc3c(c(=O)n1C2)COC(=O)C3(O)CC.Cl.O.O.O` (stereo unspecified), in test [2] (setting [5]), the “IRF Lucia reporter activity” value amounted to 1.15.
For the molecule `Cc1ccccc1C(=O)N1CCc2cc(-c3nc(NC(=O)Cc4ccc5c(c4)OCO5)sc3C)ccc21` (library stock concentration (final ~1000-fold dilution): 10 mM), the “IRF Lucia reporter activity” value is 0.982 and 1.01 in test [1] (setting [4]); 0.98 and 0.758 in test [1] (agonist: LPS (TLR4) 0.1 ug/mL).
As for `CC(C)(C)c1ccc(S(=O)(=O)NCc2ccc(C(=O)Nc3cccnc3)cc2)cc1` (library stock concentration (final ~1000-fold dilution): 10 mM), the results for the “IRF Lucia reporter activity” value in test [1] (setting [4]) and in test [1] (agonist: LPS (TLR4) 0.1 ug/mL) were 0.744 and 0.865, respectively.
The like results for `COc1c(OC)c2occc2c2oc(=O)ccc12` (library stock concentration (final ~1000-fold dilution): 10 mM) were, in that order, 0.684 and 0.49.
The like results for `CC1(C)CCC2(C(=O)O)CCC3(C)C(=CCC4C5(C)CCC(=O)C(C)(C)C5CCC43C)C2C1` (stereo unspecified) (library stock concentration (final ~1000-fold dilution): 10 mM) were, in that order, 1.18 and 0.631.
For the molecule `Cc1cc(N2CCOCC2)cc2[nH]c(-c3c(NCC(O)c4cccc(Cl)c4)cc[nH]c3=O)nc12` (stereo unspecified), in test [2] (setting [5]), the “IRF Lucia reporter activity” value was determined as 0.0217.
For the molecule `Cc1cc(N2CCOCC2)cc2[nH]c(-c3c(NCC(O)c4cccc(Cl)c4)cc[nH]c3=O)nc12` (stereo unspecified) (library stock concentration (final ~1000-fold dilution): 10 mM), the “IRF Lucia reporter activity” value in test [1] (setting [4]) stood at 0.0144; in test [1] (agonist: LPS (TLR4) 0.1 ug/mL), 0.0267.
Take `NC(=O)NO` (library stock concentration (final ~1000-fold dilution): 10 mM): the “IRF Lucia reporter activity” value in test [1] (setting [4]) is 0.994; in test [1] (agonist: LPS (TLR4) 0.1 ug/mL) it was 0.724.
As for `NC(=O)NO`, in test [2] (setting [5]), the “IRF Lucia reporter activity” value was found to be 0.982.
For `CC12CC3(O)OC(O1)C1(COC(=O)c4ccccc4)C3CC21OC1OC(COC(=O)c2ccccc2)C(O)C(O)C1O` (stereo unspecified) (library stock concentration (final ~1000-fold dilution): 10 mM), the “IRF Lucia reporter activity” value in test [1] (setting [4]) turned out to be 0.883; in test [1] (agonist: LPS (TLR4) 0.1 ug/mL), 1.19.
For `Cl.Cl.O=C1c2c(O)ccc(O)c2C(=O)c2c(NCCNCCO)ccc(NCCNCCO)c21` (library stock concentration (final ~1000-fold dilution): 10 mM), the “IRF Lucia reporter activity” value is 1.01 in test [1] (setting [4]) and 0.014 in test [1] (agonist: LPS (TLR4) 0.1 ug/mL).
On to `Cl.Cl.O=C1c2c(O)ccc(O)c2C(=O)c2c(NCCNCCO)ccc(NCCNCCO)c21`, for which the “IRF Lucia reporter activity” value in test [2] (setting [5]) worked out at 1.09.
For the molecule `O=C(Nc1ccccc1C(=O)O)c1cc(S(=O)(=O)c2ccccc2)ccc1Cl` (library stock concentration (final ~1000-fold dilution): 10 mM), the “IRF Lucia reporter activity” value in test [1] (setting [4]) is 0.783; in test [1] (agonist: LPS (TLR4) 0.1 ug/mL), 0.751.
Turning to `COCCc1ccc(OCC(O)CNC(C)C)cc1.COCCc1ccc(OCC(O)CNC(C)C)cc1.O=C(O)C(O)C(O)C(=O)O` (stereo unspecified), the “IRF Lucia reporter activity” value in test [2] (setting [5]) came to 0.694.
In the case of `COCCc1ccc(OCC(O)CNC(C)C)cc1.COCCc1ccc(OCC(O)CNC(C)C)cc1.O=C(O)C(O)C(O)C(=O)O` (stereo unspecified) (library stock concentration (final ~1000-fold dilution): 10 mM), the entries for the “IRF Lucia reporter activity” value in test [1] (setting [4]) and in test [1] (agonist: LPS (TLR4) 0.1 ug/mL) were 1.05 and 0.944, respectively.
On to `Cc1c(C)c2c(c(C)c1O)CC[C@@](C)(CCC[C@H](C)CCC[C@H](C)CCCC(C)C)O2` (library stock concentration (final ~1000-fold dilution): 10 mM), for which the “IRF Lucia reporter activity” value in test [1] (setting [4]) amounted to 0.0149; in test [1] (agonist: LPS (TLR4) 0.1 ug/mL) it was 0.0182.
On to `COc1cc2c(cc1OC)CN(CCc1ccc(NC(=O)c3cccc4c(=O)c5cccc(OC)c5[nH]c34)cc1)CC2` (library stock concentration (final ~1000-fold dilution): 10 mM), for which the “IRF Lucia reporter activity” value in test [1] (setting [4]) came to 1.04; in test [1] (agonist: LPS (TLR4) 0.1 ug/mL), 1.42.
On the same counts, the results for `C=C(C)C1CC=C(C)CC1` (stereo unspecified) (library stock concentration (final ~1000-fold dilution): 10 mM) are 0.703 and 0.701.
`CC(C)(O)CNc1ncc(-c2ccnc(Nc3ccncc3)n2)c(CC2CC2)n1` (library stock concentration (final ~1000-fold dilution): 10 mM): the “IRF Lucia reporter activity” value in test [1] (setting [4]) came to 0.364; in test [1] (agonist: LPS (TLR4) 0.1 ug/mL), 10.3.
Regarding `CN(C)CCC=C1c2ccccc2C(C)(C)c2ccccc21.Cl`, in test [2] (cytotoxicity flag (confluency mask): cytotoxic (confluency <70% of control)), the “IRF Lucia reporter activity” value stood at 1.88.
As for `CN(C)CCC=C1c2ccccc2C(C)(C)c2ccccc21.Cl` (library stock concentration (final ~1000-fold dilution): 10 mM), the “IRF Lucia reporter activity” value in test [3] (setting [4]) was determined as 0.653; in test [3] (agonist: LPS (TLR4) 0.1 ug/mL), 1.37.
Regarding `CC(C)(C)C(O)/C=C/c1ccc2c(c1)OCO2` (stereo unspecified) (library stock concentration (final ~1000-fold dilution): 10 mM), the “IRF Lucia reporter activity” value was 1.1 in test [1] (setting [4]) and 1.43 in test [1] (agonist: LPS (TLR4) 0.1 ug/mL).
Turning to `CC(C)(C)C(O)/C=C/c1ccc2c(c1)OCO2` (stereo unspecified), the “IRF Lucia reporter activity” value in test [2] (setting [5]) worked out at 1.26.
Still for that read-out and setting: under `Nc1nc(F)nc2c1ncn2C1OC(COP(=O)(O)O)C(O)C1O` (stereo unspecified) stands 1.03.
Take `Nc1nc(F)nc2c1ncn2C1OC(COP(=O)(O)O)C(O)C1O` (stereo unspecified) (library stock concentration (final ~1000-fold dilution): 10 mM): the “IRF Lucia reporter activity” value is 1 in test [1] (setting [4]) and 1.24 in test [1] (agonist: LPS (TLR4) 0.1 ug/mL).
Regarding `O=C(Nc1ccc2c(O)cc(S(=O)(=O)O)cc2c1)Nc1ccc2c(O)cc(S(=O)(=O)O)cc2c1`, the “IRF Lucia reporter activity” value in test [2] (setting [5]) worked out at 1.01.
As for `O=C(Nc1ccc2c(O)cc(S(=O)(=O)O)cc2c1)Nc1ccc2c(O)cc(S(=O)(=O)O)cc2c1` (library stock concentration (final ~1000-fold dilution): 10 mM), the “IRF Lucia reporter activity” value is 0.902 and 0.943 in test [1] (setting [4]); 1.19 and 1.01 in test [1] (agonist: LPS (TLR4) 0.1 ug/mL).
Regarding `Cn1cnc(N)c2ncnc1-2`, the “IRF Lucia reporter activity” value in test [2] (setting [5]) was 1.12.
Regarding `Cn1cnc(N)c2ncnc1-2` (library stock concentration (final ~1000-fold dilution): 10 mM), the entries for the “IRF Lucia reporter activity” value in test [1] (setting [4]) and in test [1] (agonist: LPS (TLR4) 0.1 ug/mL) were 1.01 and 0.983, respectively.
Turning to `O=C(O)c1cc(O)c(O)c(O)c1` (library stock concentration (final ~1000-fold dilution): 10 mM), the “IRF Lucia reporter activity” value in test [1] (setting [4]) is 1.09 and 0.635; in test [1] (agonist: LPS (TLR4) 0.1 ug/mL), 1.24 and 0.448.
Consider `O=C(O)c1cc(O)c(O)c(O)c1`, for which the “IRF Lucia reporter activity” value in test [2] (setting [5]) was determined as 1.07.
Still for that read-out and setting: under `CC1OC(OC2C(O)CC(OC3C(O)CC(OC4CCC5(C)C(CCC6C5CC(O)C5(C)C(C7=CC(=O)OC7)CCC65O)C4)OC3C)OC2C)CC(O)C1O` (stereo unspecified) stands 0.709.
`CC1OC(OC2C(O)CC(OC3C(O)CC(OC4CCC5(C)C(CCC6C5CC(O)C5(C)C(C7=CC(=O)OC7)CCC65O)C4)OC3C)OC2C)CC(O)C1O` (stereo unspecified) (library stock concentration (final ~1000-fold dilution): 10 mM): the figures for the “IRF Lucia reporter activity” value in test [1] (setting [4]) and in test [1] (agonist: LPS (TLR4) 0.1 ug/mL) were 0.876 and 0.86, respectively.
